Results on 44 compounds are retold here after paper PMC4336329 (PLoS ONE, 2015).

Among all 310,000 compounds or so, about 14,000 (4.5%) showed an effect of 50% or more. Effects have a minus sign here. The list shows a part of the results.
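Further: peak tail current of the secondary pulse compared with the same well before compound.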

For the assay, the target named is human ether-à-go-go-related gene (hERG) potassium channel (human, UniProt Q12809). Put plainly: primary screen, population patch clamp on CHO cells stably expressing hERG.
Chain of human ether-à-go-go-related gene (hERG) potassium channel (Q12809 whole entry, looked up): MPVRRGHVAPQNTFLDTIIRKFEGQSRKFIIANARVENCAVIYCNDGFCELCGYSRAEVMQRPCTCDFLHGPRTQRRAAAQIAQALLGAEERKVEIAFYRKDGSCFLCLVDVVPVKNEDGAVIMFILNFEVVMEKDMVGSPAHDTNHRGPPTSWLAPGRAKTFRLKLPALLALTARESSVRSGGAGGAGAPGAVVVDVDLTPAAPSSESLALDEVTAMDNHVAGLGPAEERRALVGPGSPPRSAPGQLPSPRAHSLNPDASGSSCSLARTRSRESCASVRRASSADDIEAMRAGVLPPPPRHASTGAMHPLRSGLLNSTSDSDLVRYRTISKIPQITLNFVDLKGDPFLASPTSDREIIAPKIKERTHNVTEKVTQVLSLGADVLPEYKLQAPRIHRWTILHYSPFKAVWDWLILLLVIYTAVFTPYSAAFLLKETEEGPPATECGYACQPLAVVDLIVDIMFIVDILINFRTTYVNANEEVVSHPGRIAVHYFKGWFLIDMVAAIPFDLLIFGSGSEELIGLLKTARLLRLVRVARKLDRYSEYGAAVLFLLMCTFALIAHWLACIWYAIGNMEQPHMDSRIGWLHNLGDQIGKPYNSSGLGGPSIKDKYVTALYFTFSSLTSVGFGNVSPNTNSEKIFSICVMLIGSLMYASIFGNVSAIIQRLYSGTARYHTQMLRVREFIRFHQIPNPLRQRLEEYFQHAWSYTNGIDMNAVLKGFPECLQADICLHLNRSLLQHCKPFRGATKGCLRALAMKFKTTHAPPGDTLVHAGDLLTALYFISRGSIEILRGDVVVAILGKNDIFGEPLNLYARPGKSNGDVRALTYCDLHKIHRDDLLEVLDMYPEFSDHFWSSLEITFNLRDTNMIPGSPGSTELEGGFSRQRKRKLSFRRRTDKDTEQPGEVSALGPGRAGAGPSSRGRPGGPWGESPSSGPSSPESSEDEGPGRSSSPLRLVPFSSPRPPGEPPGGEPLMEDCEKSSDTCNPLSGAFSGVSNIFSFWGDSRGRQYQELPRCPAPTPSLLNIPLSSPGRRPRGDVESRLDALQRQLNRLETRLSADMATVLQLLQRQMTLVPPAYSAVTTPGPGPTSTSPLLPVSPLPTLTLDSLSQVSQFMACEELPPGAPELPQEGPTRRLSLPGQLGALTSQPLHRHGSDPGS
With `CN(CC1CCOCC1)C(=O)CC1C(=O)NCCN1Cc1cccc(F)c1` (centres unmarked), the “hERG current change (%, negative = inhibition) at 10uM” value is 14.8%.

As for `O=C(OC(C(=O)NC1CCCC1)c1ccncc1)C1=Cc2ccccc2OC1` (centres unmarked), the “hERG current change (%, negative = inhibition) at 10uM” value is -2.88%.

For the compound `Cc1ccccc1CC(=O)N1CCCC(CCC(=O)N2CCN(c3ccccn3)CC2)C1` (centres unmarked), the “hERG current change (%, negative = inhibition) at 10uM” value is 5.88%.

`O=C(c1cc2ccccc2oc1=O)N1CCN(c2ncccn2)CC1`: the “hERG current change (%, negative = inhibition) at 10uM” value is on record as 8.16%.

As for `Cc1ccc([N+](=O)[O-])cc1N=Nc1c(C)[nH]n(C(N)=S)c1=O`, the “hERG current change (%, negative = inhibition) at 10uM” value stood at 19.4%.

As to `CC(=O)NCCNc1ccc([N+](=O)[O-])cc1C#N`, the “hERG current change (%, negative = inhibition) at 10uM” value turned out to be 21.4%.

With `COc1ccc(-c2csc(/C(C#N)=C(\O)CSc3nccn3C)n2)cc1OC`, the “hERG current change (%, negative = inhibition) at 10uM” value is -10%.

On to `O=C(CN1C(=O)c2ccccc2C1=O)NCC(=O)OCC(=O)c1cccc([N+](=O)[O-])c1`, for which the “hERG current change (%, negative = inhibition) at 10uM” value amounted to 0.444%.

With `O=C(CSC1CC(=O)N(c2ccc(C(=O)O)cc2)C1=O)Nc1ccc2ccccc2c1` (centres unmarked), the “hERG current change (%, negative = inhibition) at 10uM” value was 15.8%.

For the compound `CCCCOc1cccc(-c2nnc(NC(=O)CSc3ccc(C)cc3)s2)c1`, the “hERG current change (%, negative = inhibition) at 10uM” value is -6.23%.

As to `COC(=O)C1CCN(c2nc3ccccc3nc2C(C#N)C(=O)NCCc2ccccc2)CC1` (centres unmarked), the “hERG current change (%, negative = inhibition) at 10uM” value is 3.84%.

With `O=C(O)C1CCN(S(=O)(=O)c2cccs2)CC1`, the “hERG current change (%, negative = inhibition) at 10uM” value was determined as 14.7%.

In the case of `COc1ccc(N(CC(=O)NC2CC3CCC2C3)S(=O)(=O)c2ccccc2)cc1Cl` (centres unmarked), the “hERG current change (%, negative = inhibition) at 10uM” value is -19.4%.

In the case of `Cc1ccc(S(=O)(=O)N2CN(CC3CCCO3)c3nc4ccccc4nc32)c(C)c1` (centres unmarked), the “hERG current change (%, negative = inhibition) at 10uM” value was found to be 16.9%.

For the compound `Cc1ccc(C(=O)Nc2nc3ccccc3n3nnnc23)cc1`, the “hERG current change (%, negative = inhibition) at 10uM” value is on record as -20.6%.

With `Cc1ccc(SCc2cc(=O)c3c(=O)n(-c4ccccc4)[nH]c3[nH]2)cc1`, the “hERG current change (%, negative = inhibition) at 10uM” value was 7.34%.

For `CCc1ccccc1N1C(=O)C2CC=CCC2C1=O` (centres unmarked), the “hERG current change (%, negative = inhibition) at 10uM” value is reported as -6.41%.

Regarding `Cc1cccc(-c2cc(C(=O)Nc3sc(C)c(C)c3C(N)=O)c3ccccc3n2)c1`, the “hERG current change (%, negative = inhibition) at 10uM” value is listed as 3.87%.

On to `Cc1cccc(C)c1Nc1c(-c2ccccc2O)nc2ncccn12`, for which the “hERG current change (%, negative = inhibition) at 10uM” value worked out at 16.7%.

Regarding `CCc1ccccc1Oc1coc2cc(O)ccc2c1=O`, the “hERG current change (%, negative = inhibition) at 10uM” value is -2.67%.

With `CC(Sc1nnc(-c2ccco2)n1C)C(=O)N(C)C1CCCCC1` (centres unmarked), the “hERG current change (%, negative = inhibition) at 10uM” value is listed as 6.7%.

On to `COc1ccccc1-c1nc(C#N)c(NCc2ccc(F)cc2)o1`, for which the “hERG current change (%, negative = inhibition) at 10uM” value is reported as -9.48%.

On to `CCC1S/C(=N/N=C/c2ccco2)N(c2ccc(F)cc2)C1=O` (centres unmarked), for which the “hERG current change (%, negative = inhibition) at 10uM” value was determined as 3.46%.

As for `O=C(c1csc2c1CCCCC2)N1CCN(c2ncccn2)CC1`, the “hERG current change (%, negative = inhibition) at 10uM” value is recorded as -4.41%.

On to `COc1ccc(OC)c(N2Cc3cc(C)c(C)cc3C2)c1`, for which the “hERG current change (%, negative = inhibition) at 10uM” value is 1.91%.

Turning to `CCn1c(=O)c(=O)n(CC)c2cc(S(=O)(=O)Nc3cc(C)ccc3C)ccc21`, the “hERG current change (%, negative = inhibition) at 10uM” value is listed as -21.6%.

Take `NC(=O)/C(N=Nc1ccccc1)=N/Nc1ccccc1`: the “hERG current change (%, negative = inhibition) at 10uM” value worked out at 4.74%.

For the compound `CCC1=NN(C(=O)c2ccc(C)cc2)C(O)(c2ccc(Br)cc2)C1` (centres unmarked), the “hERG current change (%, negative = inhibition) at 10uM” value is reported as -10.7%.

As for `N=P(N1CCOCC1)(N1CCOCC1)C12CC3CC(CC(C3)C1)C2`, the “hERG current change (%, negative = inhibition) at 10uM” value turned out to be 14.7%.

Regarding `O=C(Nc1ccccc1)OCCNC(=O)c1ccccc1`, the “hERG current change (%, negative = inhibition) at 10uM” value is listed as -6.55%.

On to `CCS(=O)(=O)N1N=C(c2cccc(NS(C)(=O)=O)c2)CC1c1ccccc1` (centres unmarked), for which the “hERG current change (%, negative = inhibition) at 10uM” value is on record as -16.9%.

In the case of `CN(C)C(=O)CSc1ccccc1C(=O)OCC(=O)NC1CC1`, the “hERG current change (%, negative = inhibition) at 10uM” value amounted to 2.87%.

With `NC(=O)CCn1c(C(=O)c2ccc(Cl)cc2)c2ccccc2[n+]1[O-]`, the “hERG current change (%, negative = inhibition) at 10uM” value was -23.7%.

For `COc1ccc(OC)c(S(=O)(=O)Nc2ccccc2C(=O)O)c1`, the “hERG current change (%, negative = inhibition) at 10uM” value stood at 6.5%.

Turning to `CSCCC(N=C1NS(=O)(=O)c2ccccc21)C(=O)NCc1ccccc1F` (centres unmarked), the “hERG current change (%, negative = inhibition) at 10uM” value was 5.73%.

For `Cc1ccc(NC(=O)COC(=O)c2ccc([N+](=O)[O-])s2)c(C)c1`, the “hERG current change (%, negative = inhibition) at 10uM” value came to 20.5%.

Take `O=c1[nH]c(CSc2nnc3ccccn23)nc2ccccc12`: the “hERG current change (%, negative = inhibition) at 10uM” value is reported as -9.13%.

With `Cc1cccc(C)c1NC(=S)N=Nc1c(O)n(C)c2ccc(S(=O)(=O)N3CCOCC3)cc12`, the “hERG current change (%, negative = inhibition) at 10uM” value was 18.8%.

As for `Cc1cccc(/C=C/C(=O)c2cc(Br)ccc(=O)c2O)c1`, the “hERG current change (%, negative = inhibition) at 10uM” value is 16.7%.

Regarding `CN1CCN(c2oc(-c3cccs3)nc2S(=O)(=O)c2ccccc2)CC1`, the “hERG current change (%, negative = inhibition) at 10uM” value is -32.2%.

On to `Cc1ccc(Sc2ccc([N+](=O)[O-])cc2[N+](=O)[O-])nc1`, for which the “hERG current change (%, negative = inhibition) at 10uM” value is reported as -19.1%.

Consider `CCOC(=O)c1c(S(=O)(=O)NCc2ccco2)c(C)n(C)c1C`, for which the “hERG current change (%, negative = inhibition) at 10uM” value is reported as -13.8%.

Take `Cc1ccc(-c2cccc(C3CC=CC4C3C(=O)N(Cc3ccccc3)C4c3ccc(C(F)(F)F)cc3)c2)cc1` (centres unmarked): the “hERG current change (%, negative = inhibition) at 10uM” value came to 25.5%.

For `C=CCn1c(SCC(=O)NC)nc2sc3c(c2c1=O)CCC3`, the “hERG current change (%, negative = inhibition) at 10uM” value was -19.4%.
